Data reported in the supplement of paper PMC11741623.
The list shows a part of the results. Interaction screen of human proteins with wild-type SARS-CoV-2 proteins by split-DHFR complementation in yeast, 1 µg/mL methotrexate. Value = fitness of the pair (three or more lineages) minus that of the viral protein without a human partner, on a scale set by negative (0) and fused positive (1) controls, mean of up to three cultures; higher = more likely to interact. Active = false discovery rate below 0.05 (one-sided t-test) in at least one culture. Nearly all pairs are not hits, and differences among them are mostly noise (correlation between cultures about 0.3); most hits were seen in one culture only. Human sequences are the Swiss-Prot entries looked up by gene name; the clone may be another isoform. NSP2 values were corrected by the authors for a growth advantage. Listed are human proteins with a hit and a random twelfth of the others.

B1: C17orf64, Q86WR6 (protein)
chain: MEASDGQGGEGDKPLEQVTNVSCLETSSSASPARDSLMRHAKGLDQDTFKTCKEYLRPLKKFLRKLHLPRDLPQKKKLKYMKQSLVVLGDHINTFLQHYCQAWEIKHWRKMLWRFISLFSELEAKQLRRLYKYTKSSQPAKFLVTFCASDAPERSLLADREDSLPKLCHAWGLHSNISGMKERLSNMQTPGQGSPLPGQPRSQDHVKKDSLRELSQKPKLKRKRIKEAPETPETEP
B2: PDIA5, Q14554 (protein)
chain: MARAGPAWLLLAIWVVLPSWLSSAKVSSLIERISDPKDLKKLLRTRNNVLVLYSKSEVAAENHLRLLSTVAQAVKGQGTICWVDCGDAESRKLCKKMKVDLSPKDKKVELFHYQDGAFHTEYNRAVTFKSIVAFLKDPKGPPLWEEDPGAKDVVHLDSEKDFRRLLKKEEKPLLIMFYAPWCSMCKRMMPHFQKAATQLRGHAVLAGMNVYSSEFENIKEEYSVRGFPTICYFEKGRFLFQYDNYGSTAEDIVEWLKNPQPPQPQVPETPWADEGGSVYHLTDEDFDQFVKEHSSVLVMFHAPWCGHCKKMKPEFEKAAEALHGEADSSGVLAAVDATVNKALAERFHISEFPTLKYFKNGEKYAVPVLRTKKKFLEWMQNPEAPPPPEPTWEEQQTSVLHLVGDNFRETLKKKKHTLVMFYAPWCPHCKKVIPHFTATADAFKDDRKIACAAVDCVKDKNQDLCQQEAVKGYPTFHYYHYGKFAEKYDSDRTELGFTNYIRALREGDHERLGKKKEEL
B3: CHN1, P15882 (protein)
chain: MALTLFDTDEYRPPVWKSYLYQLQQEAPHPRRITCTCEVENRPKYYGREFHGMISREAADQLLIVAEGSYLIRESQRQPGTYTLALRFGSQTRNFRLYYDGKHFVGEKRFESIHDLVTDGLITLYIETKAAEYIAKMTINPIYEHVGYTTLNREPAYKKHMPVLKETHDERDSTGQDGVSEKRLTSLVRRATLKENEQIPKYEKIHNFKVHTFRGPHWCEYCANFMWGLIAQGVKCADCGLNVHKQCSKMVPNDCKPDLKHVKKVYSCDLTTLVKAHTTKRPMVVDMCIREIESRGLNSEGLYRVSGFSDLIEDVKMAFDRDGEKADISVNMYEDINIITGALKLYFRDLPIPLITYDAYPKFIESAKIMDPDEQLETLHEALKLLPPAHCETLRYLMAHLKRVTLHEKENLMNAENLGIVFGPTLMRSPELDAMAALNDIRYQRLVVELLIKNEDILF
B4: CNTD1, Q8N815 (protein)
chain: MDGPMRPRSASLVDFQFGVVATETIEDALLHLAQQNEQAVREASGRLGRFREPQIVEFVFLLSEQWCLEKSVSYQAVEILERFMVKQAENICRQATIQPRDNKRESQNWRALKQQLVNKFTLRLVSCVQLASKLSFRNKIISNITVLNFLQALGYLHTKEELLESELDVLKSLNFRINLPTPLAYVETLLEVLGYNGCLVPAMRLHATCLTLLDLVYLLHEPIYESLLRASIENSTPSQLQGEKFTSVKEDFMLLAVGIIAASAFIQNHECWSQVVGHLQSITGIALASIAEFSYAILTHGVGANTPGRQQSIPPHLAARALKTVASSNT
B5: FAM151A, Q8WW52 (protein)
chain: MVCREQLSKNQVKWVFAGITCVSVVVIAAIVLAITLRRPGCELEACSPDADMLDYLLSLGQISRRDALEVTWYHAANSKKAMTAALNSNITVLEADVNVEGLGTANETGVPIMAHPPTIYSDNTLEQWLDAVLGSSQKGIKLDFKNIKAVGPSLDLLRQLTEEGKVRRPIWINADILKGPNMLISTEVNATQFLALVQEKYPKATLSPGWTTFYMSTSPNRTYTQAMVEKMHELVGGVPQRVTFPVRSSMVRAAWPHFSWLLSQSERYSLTLWQAASDPMSVEDLLYVRDNTAVHQVYYDIFEPLLSQFKQLALNATRKPMYYTGGSLIPLLQLPGDDGLNVEWLVPDVQGSGKTATMTLPDTEGMILLNTGLEGTVAENPVPIVHTPSGNILTLESCLQQLATHPGHWGIHLQIAEPAALRPSLALLARLSSLGLLHWPVWVGAKISHGSFSVPGHVAGRELLTAVAEVFPHVTVAPGWPEEVLGSGYREQLLTDMLELCQGLWQPVSFQMQAMLLGHSTAGAIGRLLASSPRATVTVEHNPAGGDYASVRTALLAARAVDRTRVYYRLPQGYHKDLLAHVGRN

What follows are binders tested against SARS-CoV-2 M (assay: yeast fitness gain over the viral ORF with no human partner (scaled fitness); higher = more likely to interact).
Method: (§1)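 Split mouse DHFR complementation in pooled diploid yeast: human ORFeome clones carry one fragment and viral ORFs the other; barcoded lineages compete in 1 µg/mL methotrexate and fitness is read by barcode sequencing in up to three cultures.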

Binder | yeast fitness gain
B1 | inactive: -0.0714
B2 | inactive: 0.0438
B3 | inactive: -0.148
B4 | inactive: -0.0873
B5 | inactive: -0.0337

What follows are binders tested against SARS-CoV-2 N in the same assay as above.
Method: as §1

Binder | yeast fitness gain
B1 | inactive: 0.0713
B2 | inactive: -0.0885

The binders below were run against SARS-CoV-2 NSP1 in the same assay as above.
Method: as §1

Binder | yeast fitness gain
B1 | inactive: 0.0486
B2 | inactive: 0.14
B5 | inactive: 0.0593

What follows are binders tested against SARS-CoV-2 NSP10 in the same assay as above.
Method: as §1

Binder | yeast fitness gain
B1 | inactive: 0.0481
B2 | inactive: -0.0313
B5 | inactive: 0.141

These binders were tested against SARS-CoV-2 NSP12 in the same assay as above.
Method: as §1

Binder | yeast fitness gain
B1 | inactive: -0.0698
B2 | inactive: 0.0809
B3 | inactive: 0.0235
B4 | inactive: 0.00944
B5 | inactive: 0.0977

These binders were tested against SARS-CoV-2 NSP13 in the same assay as above.
Method: as §1

Binder | yeast fitness gain
B1 | inactive: 0.0374
B2 | inactive: 0.0714
B3 | inactive: 0.0261
B4 | inactive: 0.0395
B5 | inactive: 0.0174

What follows are binders tested against SARS-CoV-2 NSP14 in the same assay as above.
Method: as §1

Binder | yeast fitness gain
B1 | inactive: -0.117

The binders below were run against SARS-CoV-2 NSP16 in the same assay as above.
Method: as §1

Binder | yeast fitness gain
B1 | inactive: 0.114
B2 | inactive: -0.166
B5 | inactive: 0.0084

Each binder was assayed against SARS-CoV-2 NSP2 in the same assay as above.
Method: as §1

Binder | yeast fitness gain
B1 | inactive: -0.0574
B2 | inactive: -0.0732
B4 | inactive: -0.301
B5 | inactive: -0.215

These binders were tested against SARS-CoV-2 NSP5 in the same assay as above.
Method: as §1

Binder | yeast fitness gain
B1 | inactive: 0.00611
B2 | inactive: -0.0268
B5 | inactive: -0.0261

The binders below were run against SARS-CoV-2 NSP6 in the same assay as above.
Method: as §1

Binder | yeast fitness gain
B1 | inactive: 0.168
B2 | inactive: -0.0581
B4 | inactive: -0.0306

The binders below were run against SARS-CoV-2 NSP7 in the same assay as above.
Method: as §1

Binder | yeast fitness gain
B1 | inactive: -0.171
B2 | inactive: 0.0455
B5 | inactive: -0.0738

Each binder was assayed against SARS-CoV-2 NSP8 in the same assay as above.
Method: as §1

Binder | yeast fitness gain
B1 | inactive: -0.00742
B2 | inactive: -0.0336
B5 | inactive: 0.13

Each binder was assayed against SARS-CoV-2 NSP9 in the same assay as above.
Method: as §1

Binder | yeast fitness gain
B1 | inactive: -0.0065
B2 | inactive: -0.0342
B4 | inactive: -0.161

What follows are binders tested against SARS-CoV-2 ORF10 in the same assay as above.
Method: as §1

Binder | yeast fitness gain
B1 | inactive: 0.00391
B2 | inactive: 0.0154
B5 | inactive: -0.12

Each binder was assayed against SARS-CoV-2 ORF3A in the same assay as above.
Method: as §1

Binder | yeast fitness gain
B1 | inactive: -0.125
B2 | inactive: -0.0581

What follows are binders tested against SARS-CoV-2 ORF3B in the same assay as above.
Method: as §1

Binder | yeast fitness gain
B1 | inactive: 0.167
B2 | inactive: -0.0407
B4 | inactive: -0.0838
B5 | inactive: 0.00726

The binders below were run against SARS-CoV-2 ORF6 in the same assay as above.
Method: as §1

Binder | yeast fitness gain
B1 | inactive: 0.00105
B2 | inactive: 0.0352
B3 | inactive: -0.0881
B4 | inactive: -0.0473
B5 | inactive: 0.0474

The binders below were run against SARS-CoV-2 ORF7A in the same assay as above.
Method: as §1

Binder | yeast fitness gain
B1 | inactive: -0.0841
B2 | inactive: -0.0767
B3 | inactive: 0.0639
B4 | inactive: -0.121
B5 | inactive: -0.00516

Each binder was assayed against SARS-CoV-2 ORF7B in the same assay as above.
Method: as §1

Binder | yeast fitness gain
B1 | inactive: -0.0361
B2 | inactive: -0.0822
B4 | inactive: -0.144
B5 | inactive: -0.167

What follows are binders tested against SARS-CoV-2 ORF8 in the same assay as above.
Method: as §1

Binder | yeast fitness gain
B1 | inactive: -0.0387
B2 | inactive: 0.0413
B3 | inactive: -0.0549
B4 | inactive: -0.0575
B5 | inactive: -0.0738

These binders were tested against SARS-CoV-2 ORF9B in the same assay as above.
Method: as §1

Binder | yeast fitness gain
B1 | inactive: -0.0153
B2 | inactive: -0.00721
B3 | inactive: -0.257
B5 | inactive: 0.0092

These binders were tested against SARS-CoV-2 ORF9Bwu (the 73-codon ORF) in the same assay as above.
Method: as §1

Binder | yeast fitness gain
B1 | inactive: 0.0212
B2 | inactive: 0.00932

The binders below were run against SARS-CoV-2 S in the same assay as above.
Method: as §1

Binder | yeast fitness gain
B1 | inactive: -0.0447
B2 | inactive: -0.13

The binders below were run against SARS-CoV-2 NSP15 in the same assay as above.
Method: as §1

Binder | yeast fitness gain
B2 | inactive: -0.0406
B5 | inactive: 0.0534
